The supplement of paper PMC3334620
The full ranking holds about 33,000 sequences; the median of “E-score (-0.5 to 0.5)” is about -0.043, and the highest 2% start at about 0.37. Some of the results follow.

biological target: T1, Upc2 (UniProt Q12151); assay: PBM E-score (8-mer binding enrichment) (E-score (-0.5 to 0.5)); higher = stronger / more preferred TF binding; most listed sequences are background and not binding sites; details: protein concentration: 200 nM; construct: GST-full length
T1 sequence: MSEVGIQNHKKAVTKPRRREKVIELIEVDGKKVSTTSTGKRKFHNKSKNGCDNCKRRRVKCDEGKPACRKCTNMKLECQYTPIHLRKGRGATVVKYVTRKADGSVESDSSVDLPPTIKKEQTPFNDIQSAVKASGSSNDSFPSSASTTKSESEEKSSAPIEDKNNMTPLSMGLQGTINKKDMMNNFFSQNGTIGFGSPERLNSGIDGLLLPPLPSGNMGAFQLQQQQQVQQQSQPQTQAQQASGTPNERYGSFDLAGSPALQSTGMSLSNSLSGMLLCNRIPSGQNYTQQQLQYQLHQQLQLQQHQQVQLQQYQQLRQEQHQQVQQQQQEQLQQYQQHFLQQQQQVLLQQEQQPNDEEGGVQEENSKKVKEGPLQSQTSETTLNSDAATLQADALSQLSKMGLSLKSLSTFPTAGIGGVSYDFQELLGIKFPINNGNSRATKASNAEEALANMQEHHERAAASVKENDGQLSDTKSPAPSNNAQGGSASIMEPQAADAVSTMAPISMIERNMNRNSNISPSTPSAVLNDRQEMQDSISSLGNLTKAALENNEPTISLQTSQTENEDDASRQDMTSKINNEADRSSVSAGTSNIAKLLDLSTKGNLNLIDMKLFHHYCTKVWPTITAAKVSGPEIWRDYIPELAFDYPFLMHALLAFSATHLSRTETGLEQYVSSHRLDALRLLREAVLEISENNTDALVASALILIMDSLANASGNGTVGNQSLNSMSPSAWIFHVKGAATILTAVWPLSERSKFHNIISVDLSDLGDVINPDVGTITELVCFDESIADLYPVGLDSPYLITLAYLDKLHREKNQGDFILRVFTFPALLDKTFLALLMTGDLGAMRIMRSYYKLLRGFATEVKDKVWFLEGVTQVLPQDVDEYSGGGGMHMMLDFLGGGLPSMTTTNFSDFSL
Procedure, shortened: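 Universal all-10-mer Agilent arrays, double-stranded by primer extension on fresh or once-stripped slides, were probed with about 100-200 nM GST-tagged yeast transcription factors made by PURExpress. Fluorescent anti-GST detected bound protein, and masliner normalised the scans. E-scores from the Universal PBM Analysis Suite were given to each ungapped eight-base word pooled with its reverse complement.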

Sequence | PBM E-score
GAATACAC | -0.047
GTGCAGCA | -0.19
CATGGGCA | -0.125
AATTCACG | 0.164
CCCGTGGC | -0.137
GCCACCTA | -0.0598
AATCCAAA | -0.00912
AACATCCC | -0.146
GGGACGCA | -0.259
AAGTAGGG | -0.217
CAACCTAC | -0.123
AACTTTTC | 0.0238
AGGGCCGG | -0.317
AACTGGGC | -0.0855
CGCTCTAG | -0.2
CAGGACGA | -0.3
AGGTTCCC | -0.0772
AAACTGCA | -0.00674
CAGTATTA | 0.0434
ACGAGAAT | 0.396
AATTGACC | 0.201
CGCACTAG | -0.0981
CTATCCCC | -0.301
AACTAACA | 0.101

Sequence | PBM E-score
AATATCCG | 0.228
GTCAGTAA | 0.0334
ACCGGAAG | 0.0898
AGAGCTAT | -0.132
CATCCCTA | -0.283
CCTACTGC | -0.305
GTCTACAC | 0.0437
CCCTATCA | -0.325
ACAATTGT | -0.0371
ACCTATGA | -0.16
AGTAACCA | -0.164
AACCACTC | 0.0649
CGAGCGAC | 0.237
AAGCATCT | -0.0303
AATCCCGG | -0.113
GGCAGCAA | -0.0774
ATGCGACA | 0.226
ACACCCTC | -0.0945
GGCCGGCC | -0.0723
GCGAACGA | 0.418
CTTCTGCA | -0.144
CTCCAGGC | -0.304
CTTGCGGC | -0.0451
AACGCACG | 0.129

Sequence | PBM E-score
GAATCTGA | -0.0638
TCACACAA | 0.00014
ACAATTTA | -0.0419
CTTTCCAA | -0.12
AAGCACAT | -0.0339
AACTCGGA | -0.0443
AGACGTCA | -0.0406
AAGTTTGA | -0.182
CACGAGCC | 0.0758
ACGTCCGA | 0.0345
AGTCTTAC | 0.0844
AGCTTGCA | -0.184
AAGATGTC | -0.212
AATCGTGT | 0.169
CGGCAGCC | -0.182
AATCTTAC | 0.176
AGTCCATA | -0.225
GATCCGAC | 0.105
ACTCGGCT | -0.0276
CATGGTGG | -0.309
CGTATTCC | 0.317
GCAGACCC | -0.228
ACCCGACG | 0.118
CATAGGAG | -0.26

Sequence | PBM E-score
ACTAACCA | -0.0101
GCGCCTAA | -0.0731
AGAGATTA | 0.0334
AGGGGGAG | -0.162
AGCCGTTG | -0.121
ACTGAAGA | -0.198
ATCTGAAT | -0.0917
CCGTTGCC | -0.183
CCCGGCGC | -0.105
CACCGAAA | 0.0663
CTCACAGC | -0.186
ACCAATTG | -0.185
ATCTGCGG | -0.0675
AAATCCTA | -0.0215
AGAACCGG | -0.121
ACGCCTCC | -0.169
ATCCCCAG | -0.186
AGATACCA | -0.0472
AGCGGAAA | 0.0457
ACTCTCAT | 0.0282
CCATGTAA | -0.0287
GGCTGTCA | -0.216
